In paper PMC6919601, “Identification of Plasmodium dipeptidyl aminopeptidase allosteric inhibitors by high throughput screening” (PLoS ONE, 2019):
Screen size: about 110,000 compounds; about 230 (0.21%) showed an effect of 50% or more. The list shows a part of the results.

Biological target: DPAP1 (Plasmodium falciparum, UniProt Q8IIJ9)
Assay: primary screen, percent inhibition; read by cleavage of a fluorogenic dipeptide substrate; higher = more effect of the substance
Design: species or system P. falciparum D10 trophozoite lysates; single well
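Also: 30 min substrate incubation versus DMSO and 10 µM JCP410 controls.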

DPAP1, sequence (Q8IIJ9 whole entry, looked up): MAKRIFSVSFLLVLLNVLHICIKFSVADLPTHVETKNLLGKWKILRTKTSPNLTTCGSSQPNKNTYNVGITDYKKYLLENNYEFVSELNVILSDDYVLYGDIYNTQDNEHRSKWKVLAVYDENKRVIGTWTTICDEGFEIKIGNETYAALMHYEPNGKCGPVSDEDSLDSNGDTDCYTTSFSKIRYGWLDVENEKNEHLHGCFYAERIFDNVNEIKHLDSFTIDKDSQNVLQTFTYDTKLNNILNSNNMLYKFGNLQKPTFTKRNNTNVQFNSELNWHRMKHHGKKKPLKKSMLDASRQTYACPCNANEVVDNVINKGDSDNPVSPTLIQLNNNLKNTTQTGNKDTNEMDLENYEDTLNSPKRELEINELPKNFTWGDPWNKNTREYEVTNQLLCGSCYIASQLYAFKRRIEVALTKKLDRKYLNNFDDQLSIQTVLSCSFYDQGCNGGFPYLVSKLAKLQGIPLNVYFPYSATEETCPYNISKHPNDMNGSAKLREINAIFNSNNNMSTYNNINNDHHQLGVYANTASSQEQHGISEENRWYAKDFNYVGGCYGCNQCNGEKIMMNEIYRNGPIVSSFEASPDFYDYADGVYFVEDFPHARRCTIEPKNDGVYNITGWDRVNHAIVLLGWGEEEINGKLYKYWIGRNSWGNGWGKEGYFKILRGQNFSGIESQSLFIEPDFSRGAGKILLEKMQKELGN

| SMILES | % Inhibition @ 10 uM |
| --- | --- |
| COc1cc2c(cc1OC)C(C(=O)NCC1CCCO1)C(c1cccnc1)N(C)C2=O (stereo not shown) | -3.79% |
| Cc1ccc(C(=O)Nc2cccc3ccccc23)o1 | -1.38% |
| COc1ccccc1C(=O)OCCNC1=NS(=O)(=O)c2ccccc21 | 6.76% |
| CCn1c(C(O)c2ccccc2OC)nc2ccccc21 (stereo not shown) | 3.61% |
| Cc1ccccc1NC(=O)c1ccc(Br)cc1 | -0.856% |
| Cc1c(C(=O)NCCC2=CCCCC2)oc2ccc3c(c12)C(=O)CC(C)(C)O3 | -5.15% |
| Cc1cc(S(=O)(=O)Nc2noc3ccccc23)ccc1F | 0.569% |
| CCOC(=O)c1[nH]c2ccccc2c1NC(=O)c1ccc(S(=O)(=O)N(C)C)cc1 | -5.77% |
| O=C(c1ccc(F)cc1)n1cnc2ccccc21 | 0.486% |
| COc1ccc(NC(=S)NC(=O)c2ccccc2Cl)cc1 | 1.35% |
| CNC(=O)c1ccc2[nH]c(C)c(C)c2c1 | 0.0489% |
| Cc1ccc2[nH]c(-c3ccc(NC(=O)C(C)(C)C)cc3)nc2c1 | -1.89% |
| CCOC(=O)C1CCN(Cc2cccc(OC)c2)CC1 | -3.56% |
| CCc1cc2c(=O)c(-c3nc(C)cs3)c(C(=O)O)oc2cc1O | 2.31% |
| O=C(c1ccoc1)N1CCN(c2nn3nnnc3c3ccccc23)CC1 | -2.7% |
| O=S(=O)(c1ccc(Cl)cc1)N1CCc2ccccc21 | -0.856% |
| Cc1ccc(C)c(NC(=O)C2CCC(C)(C(=O)O)C2(C)C)c1 (stereo not shown) | -1.89% |
| Cc1ccc(N2CC(C(=O)Nc3ccc(C)c(Cl)c3)CC2=O)cc1 (stereo not shown) | 5.04% |
| O=C(NCc1ccccc1)c1cnccn1 | 39.3% |
| COc1cc(OC)c(C2C(C#N)=C(N)Oc3cc(N)ccc32)cc1Br (stereo not shown) | 4.66% |
| CCOC(=O)c1c(NC(=O)CSc2nnc(-c3cc(C)on3)o2)sc(C)c1C | 5.93% |
| Fc1ccccc1-n1ncc2c1ncn1nc(-c3ccc(Cl)cc3Cl)nc21 | -1.11% |
| CN(Cc1ccccc1)C(=O)c1ccc(Cl)c([N+](=O)[O-])c1 | 2.46% |
| O=S(=O)(c1ccc(Cl)c(Cl)c1Cl)N1CCN(Cc2ccccc2)CC1 | 2.8% |
| Cc1ccc(-c2c(C(=O)N3CCC(C)CC3)oc(=O)c3ccccc23)cc1 | -1.54% |
| COc1cc(/C=C(/C#N)c2nc(-c3ccc4c(c3)OCO4)cs2)ccc1O | -0.305% |
| Cn1c(=O)[nH]c(=O)c2c1nc(NCCCn1ccnc1)n2CCCc1ccccc1 | -1.47% |
| CCOc1c([N+](=O)[O-])cc2c(C)c(C(=O)N3CCN(C)CC3)oc2c1OCC | 1.8% |
